Measurements as given in the supplement of paper PMC11417369.
± gives the standard deviation of the averaged measurements. The list shows a part of the results.

System: PfAP2-EXP AP2 domain (GST-tagged)
Assay: gcPBM binding intensity (ln(normalized median fluorescence intensity)); higher = stronger DNA binding
In short: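 The highest Masliner-normalised natural-log median intensity across replicate spots of either probe orientation is reported as binding intensity. GST-tagged P. falciparum DNA-binding domains expressed in E. coli were applied for 1 h to an Agilent 4 × 180k array of primer-extended double-stranded 36-bp intergenic genomic probes plus negative controls, and bound protein was detected with Alexa488 anti-GST antibody and scanned at 488 nm.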

Row | Sequence | gcPBM binding intensity (ln)
1 | AATATTTTTTTATAAACACACATATAAATAAATATA [CACACA_site7622] | 8.41 ± 0.4
2 | TCTTTTAAACAGTACACACACACATATATATATATA [CACACA_site924] | 10.3 ± 0.22
3 | TTGTTGATTGTTATTTATCATTAGATGTAAAATATG [CACACA_negctrl_site927] | 8.39 ± 0.3
4 | TATTATATGTATTGCACACCTTCAACAACTACTTCT [CACACA_site655] | 9.03 ± 0.14
5 | GGGCATATAATATAAAGTACAGGACTATAAAAATAT [XGTACX_site4481] | 8.55 ± 0.38
6 | ATATCTATAATAAACACACACATATACCTATAGGTA [CACACA_site7596] | 8.66 ± 0.54
7 | ATTGTGCACTTATATGCACACATTTTAGTTTTTTTT [CACACA_site2028] | 8.54 ± 0.12
8 | GGACTTTATAAAAATGGTACACGCAATTCTATAATC [XGTACX_site6515] | 8.55 ± 0.33
9 | TAATATATAAAAAGATGTACTTTTGCAAGTTCCTTT [XGTACX_site8519] | 8.4 ± 0.4
10 | GGTACATACAAACACACACACAAAAAAAAAAAAATA [CACACA_site1577] | 8.46 ± 0.6
11 | ATATATATATATGTATGTACGTATGTATGTATGAAT [XGTACX_site4857] | 9.91 ± 0.29
12 | TGTACAGTAAATACAACACACATTTGTATAAATATA [CACACA_site4705] | 8.54 ± 0.39
13 | TATTGTATAAAAATAACATGCAATCCTTATACTGCT [TGCATGCA_site345] | 8.41 ± 0.32
14 | AATGACATTCTTACACGTACAAAATAAAAAATAAAA [XGTACX_site6932] | 8.72 ± 0.53
15 | ATTTATTTTATAATATATAAATGATATATCTTATTA [CACACA_negctrl_site66] | 8.03 ± 0.38
16 | TATATATTATATTCATGTACGTAAAAATTTTGAATA [XGTACX_site6734] | 8.63 ± 0.49
17 | CCATATGATATATATTGTACATTATATATTATTTCT [XGTACX_site1697] | 8.48 ± 0.33
18 | TATGTTGTTTATTTAGTGCATATTTAAATATTATAA [GTGCAC_site9601] | 8.92 ± 0.14
19 | TTTTCTTTCTTGTTTCGTATATTATAAAAAAAAAAG [CACACA_negctrl_site854] | 8.62 ± 0.49
20 | GTATTTTGCATAAATGCATGTAAATATATACCTACC [TGCATGCA_site957] | 8.8 ± 0.071
21 | TATTTGGGTATTTTTACACACATTAAAATATATATA [CACACA_site5800] | 8.2 ± 0.33
22 | TGTAGATAAAATAAACGTACGTATTGATTTTTTTCA [XGTACX_site1610] | 8.26 ± 0.41
23 | TATTTGTAAAGACATGCATGGTACTTTTAAAACATA [TGCATGCA_site7] | 8.9 ± 0.42

Row | Sequence | gcPBM binding intensity (ln)
24 | ACATATGAATATAATACACACTTGTATTCTTAATAT [CACACA_site5085] | 8.33 ± 0.34
25 | ATAATTCCATAAAATAGACACACGAATGTATAATAT [CACACA_site477] | 8.62 ± 0.49
26 | CAGTTGTTAATTTGTGTGCACCAAATATTATACATA | 9.34 ± 0.71
27 | TGGTAATACCCATACACACACACATACACATATATA [CACACA_site8877] | 8.61 ± 0.43
28 | TTAATATTTGTTCTGATCCTTTTATTCAACTTTTTT [CACACA_negctrl_site536] | 8.72 ± 0.52
29 | GTATAAAAATTTAGGAGTACAATATATTTATAATAT [XGTACX_site2127] | 8.705 ± 0.035
30 | TCTAATTTAAAATACACACACATATCTATAATATAT [CACACA_site7029] | 8.35 ± 0.38
31 | GTAATAAAAAATTAATGTACTTTATATAATATATTA [XGTACX_site5935] | 8.16 ± 0.32
32 | TTTTTGTATTCTCCGGACTACATTATGTTGTAAATG [CACACA_negctrl_site691] | 8.83 ± 0.51
33 | TTTTACGTGAGTAATACACACATATAAGTTTATATA [CACACA_site4120] | 8.22 ± 0.45
34 | GGCATACACGAACACACACACACACGCACATATATA [CACACA_site6426] | 8.96 ± 0.52
35 | TATAACTTTTTTAATACACACAAATATTTATTTATA [CACACA_site7425] | 8.39 ± 0.37
36 | TGTATGTTAAATACAACACACAAAAAAAAACAAGTT [CACACA_site4324] | 8.43 ± 0.37
37 | TACCACTTTCGAAGTAGTACATGGCTTTTTTTTTTT [XGTACX_site8379] | 8.64 ± 0.54
38 | GTTATAATTTAGTCAAGTACATGCGTATGTATATTC [XGTACX_site3763] | 8.66 ± 0.33
39 | ATATATATATGTGTGTGTACATATGATTTCGCACTT [XGTACX_site4449] | 9.63 ± 0.24
40 | TATACAGATAAATACACACACATATATATATATATA [CACACA_site4178] | 10.1 ± 0.28
41 | TAATATATATTATATACACACATATATATATATATA [CACACA_site428] | 10.1 ± 0.28
42 | CACAGAAATATTCTTATACACACTGTTCTTATATTC [CACACA_site288] | 8.61 ± 0.42
43 | TATAAATTAAAATCAGTGCATATTTTGAAAAACCTC | 8.64 ± 0.16
44 | TGAAATAACCCATGTGCATGCACTTCAATAACTGAA [TGCATGCA_site1041] | 9.85 ± 0.27
45 | TATAAATTATAAATTGCACACATATTTTTATATTTA [CACACA_site8974] | 8.18 ± 0.39
46 | ATATTATTATTAGTTTCACACATTTAATGAAACTAA [CACACA_site5677] | 8.51 ± 0.38

Row | Sequence | gcPBM binding intensity (ln)
47 | TGGAGGTCAGTTCACAGTACCCAGAAACTCTACGAG [XGTACX_site2007] | 8.41 ± 0.42
48 | ATTACCATATAAAACACACAAACATACATACATACA [CACACA_site3729] | 9.24 ± 0.26
49 | TATATATATATATATTGTACATATTAATATTAGAAA [XGTACX_site8923] | 10.1 ± 0.39
50 | AATACTCAAAAGAATCGTACAAACAACACTCCCACG [XGTACX_site7564] | 8.82 ± 0.48
51 | TTACATGTAAAAGGTACACACATTAGATATACAAAT [CACACA_site6651] | 8.94 ± 0.49
52 | TATCATACCTTTTAATGTACACACATTTCTTTTTTG [XGTACX_site1655] | 8.9 ± 0.36
53 | TTTTGGTTAATTCCCCCCATTACATTATGTCATGTC [CACACA_negctrl_site229] | 10.185 ± 0.007
54 | TTTCATTTTTTTACATGTACGCAAAAGTGTGTAGTT [XGTACX_site6582] | 8.78 ± 0.31
55 | GTAAATATTCATATATGTACTTATGATATTTGCTAA [XGTACX_site6828] | 8.39 ± 0.33
56 | TAATACTTATATAAAGGTACACAATTTAACCGAATG [XGTACX_site7173] | 8.72 ± 0.4
57 | CTTCCTTAGGAATGTACACACATATAAAATATGTTG [CACACA_site6355] | 8.53 ± 0.26
58 | AAGAAAGAGTTCTGTTGTACAAAATATTAATATGTA [XGTACX_site7213] | 8.77 ± 0.6
59 | ACATATATATATATATATTGATTTATTTATTTCCCT [CACACA_negctrl_site659] | 8.57 ± 0.12
60 | ATATATATATATAAATGTACAAAAATATATATGTAA [XGTACX_site4531] | 10.04 ± 0.035
61 | TAATTAACTTTATATGCATGTTAAAAATGTTATAAG [TGCATGCA_site761] | 8.29 ± 0.42
62 | TATAAACAAAACAAAACATGCATAATACTATAAATT [TGCATGCA_site333] | 8.96 ± 0.41
63 | CTTTATTATAAGATTACACACATGTGTTCTAATTTA [CACACA_site7479] | 8.38 ± 0.23
64 | TTTATTAAGAAACACACACACACACCCAAAATAAAA [CACACA_site242] | 8.91 ± 0.57
65 | AACAAAATAAAAAGTAATCTTATTTATTAAAATTTT [CACACA_negctrl_site419] | 8 ± 0.32
66 | TTTTTGTCTGCATACGCACACACGTGGACCATCTTA [CACACA_site8303] | 9.09 ± 0.48
67 | AAAGAAAGAAAACACACACACATATATATATATCAA [CACACA_site3743] | 8.84 ± 0.35
68 | TATATATATATATGTACACACACACCGATAAATAAA [CACACA_site8041] | 10.21 ± 0.085
69 | CTATTTAAAATATGAACACACATTATTTGTTTTAGA [CACACA_site2713] | 8.21 ± 0.42

Row | Sequence | gcPBM binding intensity (ln)
70 | AAAAAAAAAAATACTAGTACGTAAAATTATATAAAT [XGTACX_site3019] | 8.8 ± 0.41
71 | AATATAGGAATATGCACACATATATACCTACATACA [CACACA_site4939] | 8.38 ± 0.23
72 | ATATCATTATATAGTTGTACATATTTATTTATTTAT [XGTACX_site8995] | 8.67 ± 0.4
73 | GATATGTGTATAATATGTACATATATATATATATAT [XGTACX_site6531] | 10.2 ± 0.5
74 | ATTTCCCATACACGTTGTACAATGTAGAGAAAGTAT [XGTACX_site4586] | 8.69 ± 0.4
75 | TACGTATCATAATTTTATTTTATATATATTCACAAA [XGTACX_negctrl_site144] | 8.51 ± 0.56
76 | ATATATATATGGAAGTGTACTTATATAGCATACTAG [XGTACX_site5130] | 9.54 ± 0.15
77 | AGCGTATAACATATGACACACACACCGACATACACA [CACACA_site8532] | 8.7 ± 0.57
78 | AAATTTTTATAATTATCACACATTGAATTGTGGTCT [CACACA_site4343] | 8.56 ± 0.39
79 | AACAATTATTGTAATGCATGCACTGAATATAGAAAG [TGCATGCA_site889] | 10.3 ± 0.24
80 | ATTCACAAATATATGGTGCATAATATATATATATAT [GTGCAC_site9674] | 9.99 ± 0.3
81 | AATATGTAAATATGGGTGCTTTAAAATATATTCATT [GTGCAC_site9583] | 8.56 ± 0.11
82 | TTCCAATGATAAAATTGTACTTGAAGAAAATTTTTT [XGTACX_site4607] | 8.08 ± 0.38
83 | TTATATAACACGGGGAGGACACAAGAAATAAAGAGC [XGTACX_site2148] | 9.13 ± 0.29
84 | GCTAATAATAAAAGCATAATGAACAAACACCCAGTA [CACACA_negctrl_site806] | 9.03 ± 0.34
85 | TTTTTCTGTTTTTATAGCCTTCTCATAATACATAAA [TGCATGCA_negctrl_site355] | 8.71 ± 0.26
86 | ATTCGGATCTATAAGTGTACACAATCTAGCGAAAAG [XGTACX_site3088] | 8.77 ± 0.4
87 | TATAATAAATCGAACTGTACATATATATATATATAT [XGTACX_site7097] | 10.2 ± 0.33
88 | TATACGCAGAAACACACACACAAAAAAAAAAAAAAA [CACACA_site427] | 8.08 ± 0.49
89 | ATTTTTTTTGCTAAGTGTACACAAATGTTTATTAAT [XGTACX_site7440] | 9.04 ± 0.27
